The campaign covered roughly 420,000 compounds. About 50,000 (12%) were called active. This list was built around the results that the source calls inconclusive (neither active nor inactive); the mix of calls is not that of the screen. Calls follow the shape of the dose curve; as a rule, active = well fitted inhibition curve with a large enough effect; inconclusive = small, poorly fitted or top-dose-only effect; inactive = flat fitted curve, though single readings scatter. Potencies of inconclusive entries are left out as doubtful fits.
Assay: qHTS for Inhibitors of human tyrosyl-DNA phosphodiesterase 1 (TDP1): qHTS in cells in presence of CPT; also: nearly all actives have a fitted effect of over 55% in size
Conditions: chicken DT40 Tdp1-/-;hTDP1 cells + 20 nM CPT, ATP luminescence, 48 h; activity change, negative = growth inhibition: at 46.2 µM (top of the series) unless noted
Outline: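 Chicken DT40 Tdp1-/- cells complemented with human TDP1, 400 cells/well, exposed to compounds plus 20 nM camptothecin for at least 48 h at 37 C; viability read as ATP content by CellTiter-Glo luminescence.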
% is scaled to controls: 0 for no effect and ±100 for the full control effect; potency is read from the fitted curve at half-maximal effect; tags tell the direction and shape of the fitted curve.

| SMILES | Potency | activity change, negative = growth inhibition |
| --- | --- | --- |
| Cc1ccc(CNC(=O)C(Cc2ccccc2)NS(=O)(=O)c2ccc(Br)s2)cc1 (stereo not given) | inactive | – |
| Cc1ccc(-c2cnc(C3CC3)o2)cc1S(=O)(=O)Nc1cccc(C)c1C | inconclusive [inhibitor, single point] | – |
| c1cncc(N=c2scc(-c3cccc4ccccc34)n2CCCn2ccnc2)c1 | inconclusive [inhibitor, single point] | – |
| Cc1cc(C)nc(N2CCCC(C(=O)Nc3ccc4nc(C)c(C)nc4c3)C2)n1 (stereo not given) | inconclusive [inhibitor, single point] | – |
| CN(C(=O)COC(=O)c1ccccc1OCC(=O)Nc1ccc(Br)cc1)c1ccccc1 | inconclusive [inhibitor, single point] | – |
| O=c1c2ccccc2nc(N/N=C/c2c(O)ccc3ccccc23)n1O | active: 3.66 µM | – |
| CCn1c(=O)c2cc(C(=O)NCc3cc(OC)ccc3OC)sc2c2ccccc21 | inconclusive [inhibitor, single point] | – |
| Cc1ccc(NC(=O)C2CCCN(c3ncnc4c3nc3n4CCCCC3)C2)c(Br)c1 (stereo not given) | active: 5.8 µM | – |
| Cc1ccc(Sc2ncccc2O)cc1 | inactive | – |
| Cc1ccc(C)c(-c2nn(-c3cc(N4CCN(CCO)CC4)ccc3[N+](=O)[O-])c(=O)c3ccccc23)c1 | inconclusive [inhibitor, single point] | – |
| CC(=O)Nc1ccc(-c2sc(Nc3cccc4ccccc34)n[n+]2-c2ccccc2)cc1 | – | inconclusive: -25.8% [inhibitor] |
| CCN1CCN(c2csc3ccc(Br)cc3c2=O)CC1 | inconclusive [inhibitor, full curve, poor fit] | – |
| COc1cccc(Nc2nc(C(N)c3ccccc3)cs2)n1 (stereo not given) | active: 9.2 µM | – |
| CCOC(=O)C1=C(COC(=O)CSc2ccc(Br)cc2)NC(=O)NC1C (stereo not given) | inconclusive [inhibitor, single point] | – |
| C[C@H](CO)N1C[C@H](C)[C@@H](CN(C)Cc2ccc(-c3ccccc3)cc2)Oc2c(NS(=O)(=O)c3ccccc3)cccc2C1=O | active: 20.6 µM | – |
| COC(=O)c1c(NC(=O)c2ccc(OC)cc2OC)sc2c1CCCCC2 | inconclusive [inhibitor, single point] | – |
| NC(=O)Cn1c(=O)n(Cc2ccccc2)c(=O)c2cccnc21 | inactive | – |
| CC#CC(=O)N1CCC(CO)(CCc2ccccc2)CC1 | inactive | – |
| Cc1cc([N+](=O)[O-])c(=O)[nH]c1C | inactive | – |
| O=C(NCC1CCN(C(=O)c2c(F)c(F)c(F)c(F)c2F)CC1)c1c(F)c(F)c(F)c(F)c1F | inconclusive [inhibitor, single point] | – |
| c1ccc(CCNc2ncnc3c2cnn3-c2ccccc2)cc1 | inconclusive [inhibitor, single point] | – |
| CCN(Cc1nc2cc(Cl)ccc2c(=O)[nH]1)C(=O)c1cc(C2CC2)nn1-c1ccccc1 | active: 5.17 µM | – |
| Nc1nc2ccc(Cl)cc2cc1C(=O)NCCc1ccc(Cl)cc1Cl | inconclusive [inhibitor, single point] | – |

| SMILES | Potency | activity change, negative = growth inhibition |
| --- | --- | --- |
| Cc1ccc(C2OC(=O)C=C2c2ccccc2)cc1 (stereo not given) | inconclusive [inhibitor, single point] | – |
| CCCS(=O)(=O)NC(=O)C1(C)CCCN(C(=O)c2cc(-c3ccccc3)cs2)C1 (stereo not given) | inactive | – |
| C=CCN(CC=C)C(=O)C1CCN(Cc2ccc(OCc3ccccc3)cc2)CC1 | inconclusive [inhibitor, single point] | – |
| COC1=CC(=O)c2ccccc2C1=O | active: 3.66 µM | – |
| CCN1C(=O)C(CC(=O)Nc2ccccc2Cl)N(NC(=O)c2cccc(F)c2)C1=S (stereo not given) | inconclusive [inhibitor, single point] | – |
| COc1ccc(N(CC(=O)N/N=C/c2ccco2)S(=O)(=O)c2ccccc2)cc1Cl | inactive | – |
| CCN(CC)C(=O)c1ncn2c1C(=O)N(C)CC2 | inactive | – |
| COc1ccccc1N1CCN(c2ccc3c(c2)S(=O)(=O)c2cccc(C(=O)NCc4cccc(F)c4)c2C3=O)CC1 | inconclusive [inhibitor, partial curve] | – |
| COc1ccc(/C=C2/SC(=O)NC2=O)cc1 | inconclusive [inhibitor, single point] | – |
| CCOc1ccc2nc(NC(=O)c3nc(SCc4ccccc4F)ncc3Cl)sc2c1 | inactive | – |
| Cc1[nH]c2ccc(C(=O)OC(C)C(=O)NC3CCCCC3C)cc2c1C (stereo not given) | inconclusive [inhibitor, single point] | – |
| COc1ccc(-c2nc3cc(NC(=S)NC(=O)Cc4ccccc4)ccc3o2)cc1 | inconclusive [inhibitor, partial curve, poor fit] | – |
| CC(NC(=O)COC(=O)c1ccc(N(C)C)cc1)c1ccccc1 (stereo not given) | inconclusive [inhibitor, single point] | – |
| N#Cc1ccccc1S(=O)(=O)N1CCN(CC(=O)NCC2(N3CCOCC3)CCCCC2)CC1 | inconclusive [inhibitor, single point] | – |
| Cc1cccc(CSc2nnc(-c3cccs3)n2Cc2ccco2)c1 | inconclusive [inhibitor, single point] | – |
| CC(CCc1ccccc1)NCc1ccc(Cl)cc1Cl (stereo not given) | inconclusive [inhibitor, single point] | – |
| Cc1cc(C)cc(-n2c(SCC(=O)Nc3ccccc3)nc3c(oc4ccccc43)c2=O)c1 | active: 14.6 µM | – |
| CCn1c(SCC(=O)Nc2ccc(OC)c(S(=O)(=O)N3CCCCC3)c2)nnc1C1CC1 | inactive | – |
| O=C(CN1CCN(c2ccccc2)CC1)Nc1ccncc1 | inconclusive [inhibitor, partial curve] | – |
| O=C(N1CCN(Cc2ccc3c(c2)OCO3)CC1)C12CC3CC(CC(C3)C1)C2 | inconclusive [inhibitor, single point] | – |
| CC1=CC(C)(C)NC(=S)N1c1cccc2cc(S(=O)(=O)O)ccc12 | inactive | – |
| O=C1CSC(c2ccccc2[N+](=O)[O-])N1CCc1ccccc1 (stereo not given) | inconclusive [inhibitor, single point] | – |

Source: PubChem BioAssay AID686979 (National Center for Advancing Translational Sciences (NCATS), 2013)
